Assay results taken from publication PMC4336329 (PLoS ONE, 2015).
About 14,000 (4.5%) of roughly 310,000 compounds showed an effect of 50% or more. Effects have a minus sign here. The list shows a part of the results.

Target: human ether-à-go-go-related gene (hERG) potassium channel (human, UniProt Q12809)
Test: primary screen, population patch clamp on CHO cells stably expressing hERG
Protocol: Briefly, Chinese hamster ovary (CHO) cells stably expressing the hERG channel were dislodged from tissue culture flasks and dispensed into PPC plates. […] During the recording, background leak currents were estimated by a 100 ms step to -80 mV from an initial holding potential of -70 mV and subtracted from the subsequent current measurement. The campaign was conducted in two phases using slight differences in recording protocol. In the first phase, the initial voltage pulse used a 100 ms step to -30 mV from a holding potential of -70 mV, a 2 s conditioning step to +25 mV, and a 2 s test step to -30 mV. During the second phase of the screen, the potential during the conditioning step was raised to +45 mV. In both phases of the campaign, a secondary voltage pulse was applied using the same parameters as the second phase initial pulse. The initial and secondary pulses were applied in the absence of compound, and upon application of 1 μM and 10 μM test concentrations. […]
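Further: peak tail current of the secondary pulse compared with the same well before compound.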

Chain of human ether-à-go-go-related gene (hERG) potassium channel (Q12809 whole entry, looked up): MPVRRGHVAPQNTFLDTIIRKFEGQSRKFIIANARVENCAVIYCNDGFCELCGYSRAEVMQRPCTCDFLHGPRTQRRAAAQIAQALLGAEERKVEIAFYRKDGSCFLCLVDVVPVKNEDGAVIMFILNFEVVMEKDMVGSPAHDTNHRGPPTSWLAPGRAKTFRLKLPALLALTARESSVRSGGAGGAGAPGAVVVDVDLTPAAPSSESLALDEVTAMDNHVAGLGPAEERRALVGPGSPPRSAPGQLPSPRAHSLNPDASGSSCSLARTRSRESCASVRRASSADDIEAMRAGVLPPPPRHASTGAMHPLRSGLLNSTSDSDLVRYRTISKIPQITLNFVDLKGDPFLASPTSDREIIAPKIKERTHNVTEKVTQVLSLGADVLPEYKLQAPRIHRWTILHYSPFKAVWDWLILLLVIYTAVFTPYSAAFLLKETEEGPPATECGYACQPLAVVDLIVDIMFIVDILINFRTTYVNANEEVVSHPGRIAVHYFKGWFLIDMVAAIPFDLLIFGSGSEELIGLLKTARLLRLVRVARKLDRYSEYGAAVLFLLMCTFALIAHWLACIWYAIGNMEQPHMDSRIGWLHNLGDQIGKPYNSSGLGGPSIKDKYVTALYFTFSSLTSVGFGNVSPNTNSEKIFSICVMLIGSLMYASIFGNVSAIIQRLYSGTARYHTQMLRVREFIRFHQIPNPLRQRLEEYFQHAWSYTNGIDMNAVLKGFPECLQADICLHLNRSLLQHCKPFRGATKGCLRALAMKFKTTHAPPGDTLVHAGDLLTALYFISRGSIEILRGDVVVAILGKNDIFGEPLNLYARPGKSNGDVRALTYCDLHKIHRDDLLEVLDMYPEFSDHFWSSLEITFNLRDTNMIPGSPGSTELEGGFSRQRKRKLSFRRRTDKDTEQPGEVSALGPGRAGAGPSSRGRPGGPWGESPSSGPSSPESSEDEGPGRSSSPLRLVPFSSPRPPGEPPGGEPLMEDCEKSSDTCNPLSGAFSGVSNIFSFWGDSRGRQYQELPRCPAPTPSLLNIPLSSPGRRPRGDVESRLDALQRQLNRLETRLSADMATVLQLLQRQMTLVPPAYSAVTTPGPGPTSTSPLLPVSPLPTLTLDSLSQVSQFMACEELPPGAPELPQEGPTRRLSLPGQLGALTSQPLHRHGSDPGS

SMILES	hERG current change (%, negative = inhibition) at 10uM [%]
c1ccc(NCCCNc2ccccc2)cc1	0.426
CCCn1c2ccccc2c2nnc(SCC(=O)Nc3ncccn3)nc21	-17.4
O=C(NC1CCCCC1)C1CC(=O)N(CCc2ccc(F)cc2)C1 (centres unmarked)	-11.3
C=CCn1c(=S)[nH]c2ccc(Br)cc2c1=O	8.98
COC(=O)c1ccc(N2C(=O)CC(Sc3n[nH]c(C)n3)C2=O)cc1 (centres unmarked)	-2.31
CCC/C=N/O	13.1
CC/C(=N\NC(=O)c1cc(C)nc2ccccc12)c1ccc(C)s1	-9.3
NS(=O)(=O)c1ccc(CCNC(=O)C2CC(=O)N(Cc3ccccc3Cl)C2)cc1 (centres unmarked)	4.97
CCn1c(CC(=O)Nc2ccccc2F)nnc1SCC(=O)N1CCN(c2ccccc2)CC1	1.15
Fc1cccc(Cn2ccc(-c3ccc4c(c3)OCO4)n2)c1	-5.65
O=C(NCCCc1ccccc1)Nc1ccccc1	-4.32
[S-]C(=Nc1ccc(Cl)cc1)N[n+]1ccccc1	1.12
CC(C)CN(c1ccccc1)S(=O)(=O)c1nnc(NC(=O)c2ccco2)s1	7.79
O=C(Nc1sc2c(c1C(=O)O)CCCC2)c1ccc(Cl)cc1	41.9
COc1ccc(/C(C)=N/NC(=O)CNC(=O)/C=C\c2ccccc2OC)c(OC)c1	-25.2
N#CCCN(Cc1cccnc1)C(=S)NC(=O)c1ccc(S(=O)(=O)N2CCCC2)cc1	13.8
Cc1cc(C)c2nc(NC(=O)[C@@H](NC(=O)c3cccc(S(=O)(=O)N4CCOCC4)c3)C(C)C)sc2c1	10.3
O=C(c1cc(O)c(O)c([N+](=O)[O-])c1)c1ccccc1F	2.56
CC1CCCC(NC(=O)C2N(CCCN3CCCC3)C(=O)C3C(C(=O)Nc4cccc(Cl)c4)C4C=CC32O4)C1C (centres unmarked)	7.3
CSCCC(NS(=O)(=O)c1ccc(Cl)cc1)C(=O)OCc1c(Cl)cccc1Cl (centres unmarked)	6.45
CCC(C)Nc1nc(-c2ccc3c(c2)NC(=O)CO3)cs1 (centres unmarked)	4.35
COc1cc2ccccc2cc1C(=O)Nc1ccc(NC(=O)c2cccs2)cc1	22.9
Nc1c(C(=O)Nc2ccc(S(=O)(=O)N3CCCC3)cc2)sc2nc3cc4c(cc3cc12)CCC4	1.65

SMILES	hERG current change (%, negative = inhibition) at 10uM [%]
C/C(=N\NC(=S)Nc1ccc(F)cc1)C1CC1	-26.7
Cc1ccc(C(=O)N2CC(=O)Nc3ccc(F)cc3C2c2ccccc2)cc1[N+](=O)[O-] (centres unmarked)	13.9
COc1cccc(C(=O)Nc2cc3c(cc2Cl)OCCCO3)c1	-2.72
COCc1c(C(=O)OCC(=O)N(C)C2CCS(=O)(=O)C2)oc2ccccc12 (centres unmarked)	-1.23
CN(C)c1ccc(NC(=S)c2ccc3ccccc3n2)cc1	12.2
Cc1ccc(S(=O)(=O)N(C)C)cc1NC(=O)C(C)NC(C)c1cccs1 (centres unmarked)	-1.77
O=C(COc1ccc(Cl)cc1Cl)NNC(=S)Nc1ccc(F)cc1	10.2
CN(Cc1ccccc1)C(=S)Nc1ccc(OC(F)F)cc1	-21.2
CC(=O)c1cnn(-c2cc(Oc3ccccc3C)ncn2)c1C	13.2
O=C(CN1CCN(CC(=O)Nc2ccc(OCc3ccccc3)cc2)CC1)Nc1ccc(F)cc1	-72.5
COC(=O)COc1ccc(S(=O)(=O)Nc2ccc(C(N)=O)cc2)cc1	17.5
COc1ccc(C(=O)NCC(C)(C)SCc2c(C)cc(C)cc2C)cc1	15.4
Nc1cc(S(=O)(=O)Nc2cc(Cl)ccc2Cl)ccc1N1CCOCC1	17.2
Cc1c(N(C(=O)c2cc(=O)[nH]c3ccccc23)C(C)C)c(=O)n(-c2ccccc2)n1C	-5.09
O=C(CN1CCN(S(=O)(=O)c2ccc(F)cc2)CC1)Nc1ccc(Cl)cn1	-62.7
COc1ccc2ccccc2c1/C=N/Nc1cccc(C(=O)O)c1	28.9
CCOc1ccc(-c2cccc(NC(=O)c3ccc(Br)o3)c2)nn1	-47.8
O=S(=O)(NCc1ccccc1)c1ccc(Br)s1	-11.3
COC1=CC(=O)OC12CCCCC2	8.91
COc1cc(C(=O)OC2CCOC2=O)cc(Cl)c1OC (centres unmarked)	14.7
COc1ccc(/C(=N\O)c2ncc(C(F)(F)F)cc2Cl)cc1	-3.33
CCCCCC(=O)Nc1ccc(N2CCN(C(=O)CCC)CC2)cc1	-32.8
COc1cc(C)c(S(=O)(=O)N2CCN(C)CC2)cc1C	11.2

SMILES	hERG current change (%, negative = inhibition) at 10uM [%]
Cc1ccnc(NS(=O)(=O)c2ccc(NS(=O)(=O)Cc3ccccc3)cc2)n1	9.43
COc1ccc(CSc2nnnn2-c2ccccc2)cc1	-11.7
CSC(=NCc1ccco1)NC#N	-1.07
O=C(Nc1cc(-c2ccccc2)[nH]n1)c1ccccc1	-18
CCCCCOC(=O)Nc1nnc(CCCCC)s1	-21.7
CCOC(=O)C1(CCCc2ccccc2)CCN(C(=O)[C@@H]2C[C@@H](C)NC(=S)N2)CC1	-25.1
COCc1cc(C)nc2sc(C(=O)N3CCN(c4ccccc4)CC3)c(N)c12	-22.5
CS(=O)(=O)c1ccc2nc(NC(=O)C3CCCCC3)sc2c1	5.15
CCCC/C(O)=C1\C(=O)CC(C)(C)CC1=Nc1ccc(OC)cc1	-17.6
Cn1cc(S(=O)(=O)N2CCCC2)cc1C(=O)Nc1cccc(C(F)(F)F)c1	17.1
Cc1ccc(OCc2nnc(SCc3cc(=O)[nH]c4ccccc34)n2-c2ccccc2)cc1	-36.7
O=C(/C=C/c1cccs1)NCc1cccs1	-12.9
Cn1c(-c2ccccc2)c(C(=O)CC#N)c2ccccc21	3.59
O=C(O)c1ccc(NCCc2ccc(Cl)cc2)c([N+](=O)[O-])c1	-6.59
COc1ccccc1CNC(=O)C1CCN(S(=O)(=O)c2cccc3nonc23)CC1	11.9
O=C(N/N=C\c1cccc(Cl)c1)c1ccc(Cn2cccn2)o1	-71.2
O=C(NCC1CCCO1)c1ccc2c3n(nc2c1)-c1ccccc1CO3 (centres unmarked)	-7.22
O=[N+]([O-])c1ccc(Sc2nccn2Cc2ccccc2)cc1	-59.5
CC(=O)N1CCc2cc(Br)cc(S(=O)(=O)N3CCc4ccccc43)c21	-46.1
CCN1CCN(C(=O)/C(=C/c2ccco2)NC(=O)c2ccccc2)CC1	-70.4
Cc1ccc(OCC(=O)N/N=C/C=C/c2ccco2)cc1C	-23.9
CCCOc1ccc(C2C(C(=O)c3ccc(C)o3)=C(O)C(=O)N2Cc2ccco2)cc1 (centres unmarked)	15.4
O=C(NCCO[N+](=O)[O-])c1cccnc1	8.33

SMILES	hERG current change (%, negative = inhibition) at 10uM [%]
COc1ccc(-c2noc(CCC(=O)NCc3cc(Br)ccc3OC)n2)cc1	12
COc1ccc(N2C(=O)N(Cc3ccc(C)cc3)c3ccccc3S2(=O)=O)cc1	4.54
O=C(COC(=O)CCc1c[nH]c2ccccc12)NCCc1ccccc1	12.7
NC(=S)NC1CCS(=O)(=O)C1 (centres unmarked)	16
Cc1cccc(OCCCCCN2CCOCC2)c1	-4.05
O=C(O)C1CN(C(=O)c2ccccc2)c2cc(Cl)ccc2O1 (centres unmarked)	15.5
Cc1nn(-c2ccc(Cl)cc2)c(Cl)c1/C=C(\C#N)C(N)=O	2.92
Cc1nnc(N2CCC(C(=O)N3CCCCC3)CC2)c2nn(-c3ccc(Cl)cc3)c(C)c12	-73.9
CCn1cc(C2=NOC(C(=O)Nc3cccc(C(C)=O)c3)C2)c(C)n1 (centres unmarked)	-5.16
CC(C)CCN(C)C1CCN(C(=O)Nc2c(F)cccc2F)CC1	3.86
Cc1ccccc1CS(=O)(=O)Cc1ccc(C(=O)NCCCN2CC(C)CC(C)C2)o1 (centres unmarked)	-36.1
CCOC(=O)c1cnc2ccc(OCC)cc2c1NCCCN1CCOCC1.Cl	-75.6
Cc1ccc(N2C(=O)CS/C2=C(\C(Cl)=C(Cl)Cl)[N+](=O)[O-])cc1	21.5
COc1ccc(NC(=S)NC(=O)Cc2ccccc2)cc1	1.18
COC(=O)[C@@]12CCCCN1[C@H](c1ccc(-c3ccc(C(C)=O)cc3)cc1)[C@@H]1C(=O)N(C)C(=O)[C@@H]12.O=C(O)C(F)(F)F	6.73
CC(C)(C)NCCCCOc1ccccc1F	-13.1
CCOc1ccc(C(=O)N2CCCC(c3nc(-c4ccc(C)o4)no3)C2)cc1 (centres unmarked)	-60.2
Cc1cc(C)cc(N(CC(=O)Nc2ccc(Br)cc2)S(=O)(=O)c2c(C)[nH]c(=O)[nH]c2=O)c1	-76.4
CN(C)S(=O)(=O)c1ccc(S(=O)(=O)N2CCCC(C(=O)NC3CCCC3)C2)cc1 (centres unmarked)	-2.25
O=C(O)CCCN=C1CCCc2ccccc2N1	13
